Assay results reported in ChEMBL document CHEMBL1201862, “PubChem BioAssay data set” (2004).

Test system: NCI-H322M
Assay: DTP human tumour cell line panel, 48 h

| Structure (SMILES) | GI50 |
| --- | --- |
| CC(CC=O)Nc1nn2c(=O)c3ccccc3nc2s1 (stereo not drawn) | inactive: > 100 µM |
| CN(/N=C/c1ccnc2ccccc12)c1ccc([N+](=O)[O-])cc1[N+](=O)[O-] | inactive: 46.2 µM |
| N#CC(C(=O)CCC(=O)Nc1cccc(Cl)c1)c1ccccc1 (stereo not drawn) | inactive: > 100 µM |
| Cc1cc2oc(-c3ccccc3)c(C)c(=O)c2c2c1OC(C)(C)S2 | inactive: > 100 µM |
| Cc1cc(=O)oc2cc(OC(=O)N(CCCl)CCCl)ccc12 | inactive: > 100 µM |
| CCN(CC)CCO/N=C1\CC[C@H]2[C@@H]3CC=C4C[C@@H](O)CC[C@]4(C)[C@H]3CC[C@]12C | inactive: 20.4 µM |
| C=C1C(=O)O[C@H]2C3OC3(C)CC/C=C(/C(=O)OC)[C@@H](OC(C)=O)[C@H](OC(=O)C3(C)OC3C)[C@H]12 (stereo partly drawn) | inactive: 5.93 µM |
| O=C1c2ccccc2N2Oc3ccccc3C12c1ccccc1 (stereo not drawn) | inactive: > 100 µM |
| CCOC(=O)c1cc2c3c(c(O)c(OC)c2s1)N(C(=O)c1cc2c4c(c(O)c(OC)c2s1)N(C(C)=O)CC4)CC3 | inactive: > 100 µM |
| CCN1CCC(O)(c2ccc(Cl)c(Cl)c2)C(C(=O)c2ccc(Cl)c(Cl)c2)C1 (stereo not drawn) | inactive: 14.6 µM |
| CC(C)CC1c2[nH]c3ccccc3c2C[C@H]2C(=O)NC(Cc3c[nH]c4ccccc34)C(=O)N12 (stereo partly drawn) | inactive: 18.3 µM |
| CC1CCC(=O)C(C(=O)CC2CC(=O)N(C)C(=O)C2)C1 (stereo not drawn) | inactive: > 100 µM |
| C=CC[C@]1(C2=NC(C)(C)CO2)c2ccccc2-c2ccccc2[C@H]1C(C)=O | inactive: 11.4 µM |
| COC(=O)C(C)N(C)C(=O)[C@H](CC(N)=O)N(C)C(=O)[C@@H]1CCCN1C(=O)[C@H](C(C)C)N(C)C(=O)C(C(C)C)N(C)C(=O)[C@@H](NC(=O)OC(C)(C)C)C(C)C (stereo partly drawn) (Boc-V[ξNMeV][NMeV]P[NMeN][ξNMeA]-OMe) | inactive: > 50 µM |
| CC(C)(C(=O)N(C(=O)N1CCN(c2ccccc2)CC1)S(=O)(=O)c1ccccc1)c1ccc(Cl)cc1 | inactive: 44 µM |
| COc1ccc2[nH]c3c(C)c4ccnc(NCCCN(C)CCCNc5ccc6ncn7c8ccccc8c(=O)c5c67)c4c(C)c3c2c1 | active: 0.454 µM |
| NNC(=O)c1nn[nH]c1SSc1[nH]nnc1C(=O)NN | inactive: > 100 µM |
| O=C(NN=C(c1ccccc1)c1ccccc1)/C(O)=C/C(=O)c1ccc(Cl)cc1 | inactive: 32 µM |
| Cc1ccc(S(=O)(=O)NC(=O)NC(Cc2ccccc2)C(=O)O)cc1 (stereo not drawn) | inactive: > 100 µM |
| N#CCC(=O)N/N=C1/C(=O)N(c2cc(Cl)ccc2Cl)C(=O)C(=O)C1c1nc2ccccc2s1 (stereo not drawn) | inactive: > 100 µM |
| Nc1ccc(Oc2ccc(C34CC5C6CC7(c8ccc(Oc9ccc(N)cc9)cc8)CC5C(C3)C(C7)C6C4)cc2)cc1 | inactive: > 100 µM |
| C[C@@H]1C2=CC[C@@]3(C)C(CCC3[C@H](C)[C@H]3C[C@@]4(C)O[C@@](c5cccnc5)(O3)OC4(C)C)[C@@H]2C2OC2[C@@]12CCC(=O)O2 (stereo partly drawn) | inactive: 72.9 µM |

| Structure (SMILES) | GI50 |
| --- | --- |
| O=C1C=Cc2noc3cccc1c23 | inactive: 16.2 µM |
| Cc1nc2c(n1C(C)(C)C)C(=O)c1ccccc1C2=O | inactive: > 100 µM |
| CS(=O)(=O)c1nc(-c2cc3c(c(S(C)(=O)=O)n2)CCCC3)cc2c1CCCCC2 | inactive: > 100 µM |
| O=[N+]([O-])/C=C1\COCc2cc3c(cc21)OCO3 | inactive: 92 µM |
| Cc1ccc(S(=O)(=O)N2c3ccccc3[C@H]3CCc4c([nH]c5ccccc45)[C@H]32)cc1 | inactive: > 100 µM |
| Cc1ccc2nc(CN3CCCCC3)cc(=O)n2c1 | inactive: > 100 µM |
| COc1ccccc1NC(=O)C(C#N)=C(SC)SC | inactive: > 100 µM |
| C[C@@]12[C@H]3CC[C@@H]1[C@H](O)C(=O)N2CC3 | inactive: > 100 µM |
| COC(=O)[C@]12CC[C@H]3CC[C@H]([C@H]31)[C@H](c1ccccc1)N2 | inactive: 18.5 µM |
| NS(=O)(=O)c1nnc(NC(=S)NC(=O)Nc2ccc(Cl)c(Cl)c2)s1 | inactive: 21.9 µM |
| COc1cc2c(cc1O)CC13CCC(=O)N1CCc1cc(OC)c(O)c-2c13 (stereo not drawn) | inactive: > 6.81 µM |
| O=c1c2ccccc2nc2n1CCc1c-2[nH]c2ccc(Br)cc12 | inactive: > 100 µM |
| CCOC(=O)N1CCN(P(=O)(Nc2ccc3[nH]c(NC(=O)OC)nc3c2)Oc2ccccc2)CC1 (stereo not drawn) | inactive: > 100 µM |
| COc1cccc(-c2cc(C(=O)Nc3ccc(Cl)cc3)nc(N)n2)c1 | inactive: > 100 µM |
| O=C1Sc2ccccc2C(=O)N2CSCC12 (stereo not drawn) | inactive: > 100 µM |
| O=C1CCC(NC(=O)c2ccccc2)C(=O)N1 (stereo not drawn) | inactive: > 100 µM |
| COC(=O)c1cc2c3c(cc(N(C)C)c2[nH]1)N(C(=O)c1cc2cc(OC)c(OC)c(OC)c2[nH]1)CC3CCl (stereo not drawn) | active: 0.00665 µM |
| O=C1C=C(N2CCN(c3ncccn3)CC2)C(=O)c2c(O)ccc(O)c21 | inactive: > 100 µM |
| O=C(Nc1ccc(Br)cc1)c1c(-c2ccccc2)c2ccc(O)cc2oc1=O | inactive: > 10 µM |
| O=C1c2ccccc2C(=O)c2c(Nc3ccc4c5c(cccc35)C(=O)c3ccccc3-4)cccc21 | inactive: > 100 µM |
| CCc1nc(N)nc(N)c1-c1ccc(NC)c([N+](=O)[O-])c1 | active: 0.982 µM |
| C=C1C2C[C@@H]3O[C@H]4C[C@H]5O[C@@]6(C[C@@H]7O[C@]8(C[C@H](C)[C@@H]9O[C@@H]%10CC(C=O)O[C@@H]%10C[C@@H]9O8)C[C@H](C)[C@@H]7O6)C[C@H]5O[C@H]4[C@H](C)[C@H]3OC(=O)C[C@H]3CC[C@@H]4OC5[C@H]6O[C@]7(CC[C@H]8CC(=C)[C@H](CC[C@@H](C[C@H]1C)O2)O8)CC6O[C@@H]5[C@@H](O7)[C@H]4O3 (stereo partly drawn) | active: < 0.0001 µM |

| Structure (SMILES) | GI50 |
| --- | --- |
| O=CC(O)C(O)C(O)C1CNC(=S)O1 (stereo not drawn) | inactive: > 100 µM |
| OC(/C(=N/c1ccccc1)c1ccccc1)c1ccccc1 (stereo not drawn) | inactive: 15.5 µM |
| COc1ccc(N(CC(=O)O)N=O)cc1 | inactive: > 100 µM |
| O=c1[nH]c2ccc([N+](=O)[O-])cc2nc1/C(=N/Nc1ccccc1)C(O)c1ccco1 (stereo not drawn) | inactive: 44 µM |
| Cc1[nH]nc2c1C(=O)C=C(N(CCO)c1ccccc1)C2=O | inactive: > 100 µM |
| CCOc1ccccc1NC(=O)C(=O)c1c(O)c2ccc(O)cc2oc1=O | inactive: > 100 µM |
| C=C(c1ccccc1)C1ON(C)CCc2cc(OC)c(OC)cc21 (stereo not drawn) | inactive: > 100 µM |
| O=C1c2ccccc2C(=O)[C@@]23O[C@@]12C1(Oc2cccc4cccc(c24)O1)[C@@H]1O[C@@H]1[C@@H]3O | inactive: 16.5 µM |
| C/C(=N\NS(=O)(=O)c1ccc(C)cc1)P(=O)(O)O | inactive: > 100 µM |
| Cc1sc(Nc2ccc(Nc3nc(-c4ccccc4)c(C)s3)cc2)nc1-c1ccccc1 | inactive: > 100 µM |
| CN(CCCNC(=O)c1cn(C)c2c1ccc1ccccc12)CCCNC(=O)c1cn(C)c2c1ccc1ccccc12 | inactive: 3.13 µM |
| CCCCCCCCCCCC1=C(O)C(=O)C=C(O)C1=O [EMBELIN] | inactive: 7.41 µM |
| CC1CC(c2ccc([N+](=O)[O-])cc2)=Nc2ccccc2S1 (stereo not drawn) | inactive: 29.1 µM |
| CSc1nc2c(c(=O)[nH]1)N=C(c1ccc([N+](=O)[O-])cc1)CC(c1ccccc1)N2 (stereo not drawn) | inactive: 99.8 µM |
| CCN(CC)COC(=S)S | inactive: > 100 µM |
| C=CC1(c2ccc3ccccc3c2)OCC(CC)(CC)CO1 | inactive: 20.6 µM |
| CCCCC1=CC1(C#N)[N+](=O)[O-] (stereo not drawn) | inactive: 98.9 µM |
| COc1ccc(OC)c(NC(=O)CCC/C(CC(=O)c2ccc(O)c(OC)c2)=N\NC(=O)C[N+](C)(C)C)c1 | inactive: > 100 µM |
| BrC(=C(c1ccc(OC2CCCCO2)cc1)c1ccc(OC2CCCCO2)cc1)c1ccccc1 (stereo not drawn) | inactive: > 100 µM |
| Cc1[nH]c2ccccc2c1-c1cc(-c2cc(-c3c(C)[nH]c4ccccc34)on2)no1 | inactive: > 100 µM |
| C=CCC1(C(=O)OC(C)(C)C)C(OC)=C(C(=O)OC(C)(C)C)C2C1C(C(=O)OC(C)(C)C)=C(OC)C2(CC=C)C(=O)OC(C)(C)C (stereo not drawn) | inactive: > 100 µM |
| OC(CC(c1ccccc1)c1ccc(Cl)cc1)c1ccc(Cl)cc1 (stereo not drawn) | inactive: 36.6 µM |

| Structure (SMILES) | GI50 |
| --- | --- |
| C#C/C=C/CC1OC(C(Br)CC)CC(Br)C2CC1O2 (stereo not drawn) | inactive: 50 µM |
| OC1CSCCSCCCSCCSC1 | inactive: > 100 µM |
| O=C(Nc1ccccc1)N(C1=NCC(CI)S1)c1ccc(F)cc1F (stereo not drawn) | inactive: 54.2 µM |
| O=C(/C=C/C(Cl)(Cl)Cl)Nc1ccc(Cl)cc1 | inactive: 17.4 µM |
| CN1C(=O)C(c2c[nH]c3ccccc23)N(C)C(=O)C1c1c[nH]c2ccccc12 (stereo not drawn) | inactive: > 100 µM |
| O=C1CCc2cc(Br)ccc2O1 | inactive: > 100 µM |
| Cc1ncc2c(n1)CCC1=C2OS(=O)(=O)CC1N(C)C (stereo not drawn) | inactive: > 100 µM |
| O=C(OC(=C(c1ccccc1)c1ccccc1)N1CCCC1=S)C(c1ccccc1)c1ccccc1 | inactive: 6.22 µM |
| N#CC1C(=O)NC(=O)C(C#N)C1c1ccc(Cl)c(Cl)c1 (stereo not drawn) | inactive: > 100 µM |
| Cn1c2ccccc2c2c3c(c4c5ccccc5n(C)c4c21)C(=O)NC3=O | inactive: > 47.4 µM |
| COc1ccc2c(C)cc(N/N=C(\C)C=O)nc2c1 | inactive: 12.3 µM |
| CCc1cc2c(oc3cc4ccccc4cc32)c(=O)[nH]1 | inactive: > 10 µM |
| O=C(CC1(O)C(=O)Nc2c(Cl)ccc(Cl)c21)c1ccc(Cl)cc1Cl (stereo not drawn) | inactive: 26.7 µM |
| COc1cccc(CCCNC(=O)Cc2cc(OC)c(OC)cc2CO)c1 | inactive: > 100 µM |
| C=C(C)C1CC=C(C)[C@](O)(C2(O)C[C@H](C(=C)C)CC=C2C)C1 (stereo partly drawn) | inactive: > 100 µM |
| CCOc1ccc(NCc2cc(OC)c(OC)c(OC)c2)cc1 | inactive: 3.52 µM |
| Cc1ccc(/C=C2/N/C(=N\N=C/C(O)C(O)C(O)C(O)CO)NC2=O)cc1 (stereo not drawn) | inactive: > 100 µM |
| N#CC(NCCc1ccccc1)c1ccccc1 (stereo not drawn) | inactive: > 100 µM |
| CCCCSC1=N/C(=C\c2ccccc2O)C(Cl)=N1 | inactive: > 100 µM |
| Cn1c(N)nc2c(nc(OCc3ccccc3)n2C2OC(CO)C(O)C2O)c1=O (stereo not drawn) | inactive: > 100 µM |
| CC(=O)NC1=C(C)C(=O)c2c(nc3n2CCC3OC(=O)CCl)C1=O (stereo not drawn) | inactive: 17.4 µM |
| C[N+]1(CCC(=O)c2ccccc2)CCC2CCC(C2)C1 (stereo not drawn) | inactive: > 100 µM |

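Interpolation was linear, between the two tested concentrations surrounding the appropriate level; five concentrations were tested over 48 hours in 96-well plates. Here, GI50 denotes the concentration required for 50% inhibition of growth.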 The source made the active and inactive calls. No stated cut-off is given here; in the data, active = GI50 up to about 1.1 µM and inactive = higher. Square brackets hold non-standard residues; d marks the D form. Peptide text beside a SMILES is read from it. * marks the point of attachment. ξ: configuration not given here. NMeN = CN[C@@H](CC(N)=O)C(=O)O; NMeV = CN[C@H](C(=O)O)C(C)C; ξNMeV = CNC(C(=O)O)C(C)C; Boc = CC(C)(C)OC(=O)*; ξNMeA = CNC(C)C(=O)O
